Experimental findings from PubChem BioAssay (NCI) are described below.

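Following 48 hours of exposure in 96-well plates, responses at five concentrations were used to interpolate endpoints linearly. The concentration for 50% growth inhibition is given as GI50. TGI: total growth inhibition.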

The test system of the assay is NCI-H322M lung. The experiment in a line: NCI tumour cell line growth inhibition, 48 h.

For the compound `O=C1NC(=O)c2c1c1c3cc(Br)ccc3[nH]c1c1oc3ccc(F)cc3c21`, the GI50 was 2.65 µM and the TGI came out at 8.89 µM.

In the case of `CC[C@]12C=CCN3CC[C@@]4(c5ccc(OC)cc5N(C)[C@H]4[C@@](O)(C(=O)OC)[C@@H]1OC(=O)CCC[P+](c1ccc(OC)cc1)(c1ccc(OC)cc1)c1ccc(OC)cc1)[C@@H]32`, the GI50 is 1.31 µM and the TGI was determined as 4.89 µM.

In the case of `CN(C)c1nc(NCCNS(=O)(=O)c2ccc(C(=O)/C=C/c3ccc(F)cc3)cc2)nc(N2CCOCC2)n1`, the GI50 is 13.2 µM and the TGI was found to be 25.9 µM.
